Measured values: article PMC4336329 (PLoS ONE, 2015)
The whole screen tested about 310,000 compounds, of which about 2,200 (0.71%) showed an effect of 50% or more. Effects have a minus sign here. The list shows a part of the results.

Molecular target: human ether-à-go-go-related gene (hERG) potassium channel (human, UniProt Q12809)
Test: primary screen, population patch clamp on CHO cells stably expressing hERG

human ether-à-go-go-related gene (hERG) potassium channel, sequence (Q12809 whole entry, looked up): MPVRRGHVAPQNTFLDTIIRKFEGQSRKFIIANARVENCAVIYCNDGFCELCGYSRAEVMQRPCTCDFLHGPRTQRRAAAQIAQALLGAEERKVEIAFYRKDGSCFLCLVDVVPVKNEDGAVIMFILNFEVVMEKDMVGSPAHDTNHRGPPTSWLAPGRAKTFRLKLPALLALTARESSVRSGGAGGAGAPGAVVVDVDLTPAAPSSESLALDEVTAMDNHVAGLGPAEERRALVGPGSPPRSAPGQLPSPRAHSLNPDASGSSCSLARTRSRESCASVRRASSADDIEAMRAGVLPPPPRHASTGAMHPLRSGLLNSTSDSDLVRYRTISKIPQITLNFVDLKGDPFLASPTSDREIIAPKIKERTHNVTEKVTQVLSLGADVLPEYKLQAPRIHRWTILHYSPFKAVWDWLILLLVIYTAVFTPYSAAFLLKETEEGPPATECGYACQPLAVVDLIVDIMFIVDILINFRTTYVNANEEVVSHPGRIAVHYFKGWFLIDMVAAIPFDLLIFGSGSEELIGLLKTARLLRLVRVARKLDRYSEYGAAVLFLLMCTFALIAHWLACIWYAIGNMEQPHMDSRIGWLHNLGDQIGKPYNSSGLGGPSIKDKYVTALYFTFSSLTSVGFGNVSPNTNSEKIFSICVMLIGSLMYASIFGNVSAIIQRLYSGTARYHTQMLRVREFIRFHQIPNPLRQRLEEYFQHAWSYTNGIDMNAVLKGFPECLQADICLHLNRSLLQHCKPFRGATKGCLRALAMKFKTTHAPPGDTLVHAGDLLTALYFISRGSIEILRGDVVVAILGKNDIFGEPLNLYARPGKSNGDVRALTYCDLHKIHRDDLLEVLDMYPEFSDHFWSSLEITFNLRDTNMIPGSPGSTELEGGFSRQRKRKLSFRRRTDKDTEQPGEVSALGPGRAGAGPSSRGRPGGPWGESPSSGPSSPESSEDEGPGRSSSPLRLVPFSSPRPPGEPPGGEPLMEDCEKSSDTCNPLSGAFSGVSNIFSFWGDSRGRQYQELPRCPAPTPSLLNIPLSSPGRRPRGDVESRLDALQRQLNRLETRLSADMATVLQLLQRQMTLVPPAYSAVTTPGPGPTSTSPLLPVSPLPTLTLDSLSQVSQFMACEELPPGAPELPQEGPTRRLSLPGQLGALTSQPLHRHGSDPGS

**Q.** `CC(C)NS(=O)(=O)c1ccc(OCC(=O)NCc2ccco2)cc1` was tested. Which “hERG current change (%, negative = inhibition) at 1uM” value did it give?
**A.** The value was 12.9%.

**Q.** How did the “hERG current change (%, negative = inhibition) at 1uM” value turn out when `CCc1nccn1C(=O)c1cnn2c(C(F)F)cc(-c3ccccc3)nc12` was run?
**A.** Its value is 18.1%.

**Q.** Which “hERG current change (%, negative = inhibition) at 1uM” value does the source give for `CCCC1C(c2ccc(OC)cc2)C(C#N)(C#N)C2(C#N)CC1(N)NC2=O` (stereo not shown) here?
**A.** The value was -6.06%.

**Q.** Which “hERG current change (%, negative = inhibition) at 1uM” value does the source give for `COc1cccc(CNC(=O)CN(C)S(=O)(=O)c2cccc3cccnc23)c1` here?
**A.** Its value is 9.89%.

**Q.** With `Cc1ccn(C(C)CC(=O)Nc2ccc(-c3ccno3)cc2)n1` (stereo not shown) as the molecule, how does the “hERG current change (%, negative = inhibition) at 1uM” value read?
**A.** The value was 6.45%.

**Q.** Which “hERG current change (%, negative = inhibition) at 1uM” value does the source give for `O=C(CSc1nnc(SCc2ccc(Cl)cc2)s1)N1CCOCC1` here?
**A.** The value was 4.81%.

**Q.** How did the “hERG current change (%, negative = inhibition) at 1uM” value turn out when `CC(C)CN1CN(Cc2ccco2)CNC1=S` was run?
**A.** Its value is -2.11%.

**Q.** With `CCCNC(=O)c1ccc(N2CC3CC(C2)c2cccc(=O)n2C3)c(NC(=O)Nc2ccc(CC)cc2)c1` (stereo not shown) as the molecule, how does the “hERG current change (%, negative = inhibition) at 1uM” value read?
**A.** The value was -56.1%.

**Q.** How did the “hERG current change (%, negative = inhibition) at 1uM” value turn out when `O=C(Nc1ccc(S(=O)(=O)Nc2ccccc2)cc1)C1CC1` was run?
**A.** Its value is 3.76%.

**Q.** Which “hERG current change (%, negative = inhibition) at 1uM” value does the source give for `CCC(C)(C(=O)NC1CCCC1)N(C(=O)CNC(C)=O)c1ccccc1` (stereo not shown) here?
**A.** The value was 7.61%.

**Q.** For `CCc1cccc2c3c([nH]c12)C(CC)(CC(=O)O)OCC3` (stereo not shown), which “hERG current change (%, negative = inhibition) at 1uM” value is on record?
**A.** Its value is 18.3%.

**Q.** `COC(=O)CCCCCNc1ccc(C(=O)OC)cc1N` was tested. Which “hERG current change (%, negative = inhibition) at 1uM” value did it give?
**A.** The value was 3.37%.

**Q.** How did the “hERG current change (%, negative = inhibition) at 1uM” value turn out when `Cc1ccc(S(=O)(=O)N2CCN(C(=O)C(C)Cn3cncn3)CC2)cc1C` (stereo not shown) was run?
**A.** The value was 10.8%.

**Q.** `COc1ccc(C(=O)Nc2ccccc2C(=O)N/N=C/c2ccncc2)cc1OC` was tested. Which “hERG current change (%, negative = inhibition) at 1uM” value did it give?
**A.** The value was 8.19%.

**Q.** How did the “hERG current change (%, negative = inhibition) at 1uM” value turn out when `CCOC(=O)c1oc2cc(O)c(CC)cc2c(=O)c1-c1cscn1` was run?
**A.** The value was 16.4%.

**Q.** `Oc1ccc(Cl)cc1/C=N/c1nccs1` was tested. Which “hERG current change (%, negative = inhibition) at 1uM” value did it give?
**A.** The value was 1.8%.

**Q.** How did the “hERG current change (%, negative = inhibition) at 1uM” value turn out when `O=C(CNS(=O)(=O)c1ccc2ccccc2c1)OCC(=O)c1ccc(Br)s1` was run?
**A.** The value was 15.9%.

**Q.** `COc1cc(OC)cc(C(=O)NN2CCCCC2)c1` was tested. Which “hERG current change (%, negative = inhibition) at 1uM” value did it give?
**A.** The value was -5.02%.

**Q.** `O=S(=O)(Nc1ccc2c(c1)OCCO2)c1ccc(F)cc1` was tested. Which “hERG current change (%, negative = inhibition) at 1uM” value did it give?
**A.** Its value is -5.09%.

**Q.** Which “hERG current change (%, negative = inhibition) at 1uM” value does the source give for `Cc1oc(/C=N/NS(=O)(=O)c2ccccc2)cc1Br` here?
**A.** Its value is 0.915%.

**Q.** With `O=C(c1ccccc1)N1CCN(C(=O)c2ccc(OC(F)(F)F)cc2)CC1` as the molecule, how does the “hERG current change (%, negative = inhibition) at 1uM” value read?
**A.** Its value is -5.25%.

**Q.** `Cc1ccc(C(=O)N/N=C\c2ccc(-c3ccc(Cl)cc3)o2)cn1` was tested. Which “hERG current change (%, negative = inhibition) at 1uM” value did it give?
**A.** Its value is 4.45%.

**Q.** How did the “hERG current change (%, negative = inhibition) at 1uM” value turn out when `COc1ccccc1CC(=O)Nc1ccc(S(=O)(=O)N2CCOCC2)cc1` was run?
**A.** Its value is 17.7%.

**Q.** For `Cc1c(OCc2ccccc2)c(=O)ccn1Cc1ccc(F)cc1`, which “hERG current change (%, negative = inhibition) at 1uM” value is on record?
**A.** Its value is 7.76%.

**Q.** Which “hERG current change (%, negative = inhibition) at 1uM” value does the source give for `Cc1cccc(NC(=O)c2sc3nc4c(c(-c5cccs5)c3c2N)CN(C)CC4)c1` here?
**A.** The value was -10.4%.

**Q.** How did the “hERG current change (%, negative = inhibition) at 1uM” value turn out when `CCOc1ccccc1NC(=O)C1CCCN(S(=O)(=O)c2ccc3c(c2)C(C)(C)C(=O)N3C)C1` (stereo not shown) was run?
**A.** The value was 6.06%.

**Q.** With `COc1ccc(CNC(=O)[C@@H](NC(=O)C2CCN(C(=O)[C@@H](N)CCSC)CC2)C(C)C)cc1` as the molecule, how does the “hERG current change (%, negative = inhibition) at 1uM” value read?
**A.** Its value is 12.6%.

**Q.** For `C=CCOC(=O)C1=C[C@H](c2ccc3c(c2)OCO3)C[C@H](OCCCCO)O1`, which “hERG current change (%, negative = inhibition) at 1uM” value is on record?
**A.** Its value is -14.2%.

**Q.** How did the “hERG current change (%, negative = inhibition) at 1uM” value turn out when `O=[N+]([O-])c1ccccc1CNCCO` was run?
**A.** The value was 10.3%.

**Q.** Which “hERG current change (%, negative = inhibition) at 1uM” value does the source give for `Cc1nn(-c2ccccc2)c2c1C1(C(=O)N3c4c(cccc41)C(C)CC3(C)C)C(C#N)=C(N)O2` (stereo not shown) here?
**A.** Its value is 4.63%.

**Q.** For `COC(=O)c1c(NC(=O)c2cccs2)sc2c1CCCC2`, which “hERG current change (%, negative = inhibition) at 1uM” value is on record?
**A.** Its value is 12.4%.

**Q.** With `Cc1ccc(CN2CCN(Cc3cnc(C)s3)CC2CCO)cc1` (stereo not shown) as the molecule, how does the “hERG current change (%, negative = inhibition) at 1uM” value read?
**A.** The value was -0.701%.

**Q.** Which “hERG current change (%, negative = inhibition) at 1uM” value does the source give for `Nc1nc(SCC(=O)NCC2CCCO2)[nH]c(=O)c1NC(=O)c1ccco1` (stereo not shown) here?
**A.** Its value is 16.2%.

**Q.** Which “hERG current change (%, negative = inhibition) at 1uM” value does the source give for `CC(=O)c1c(C(C)=O)c(C)n(-c2ccc(C)c(NC(=O)c3ccccc3Cl)c2)c1C` here?
**A.** Its value is 3.92%.

**Q.** For `Clc1ccccc1Oc1cnc2ccccc2n1`, which “hERG current change (%, negative = inhibition) at 1uM” value is on record?
**A.** The value was 6.59%.

**Q.** For `O=C(NNc1ccc([N+](=O)[O-])cc1)c1ccco1`, which “hERG current change (%, negative = inhibition) at 1uM” value is on record?
**A.** The value was -3.57%.

**Q.** `Cc1ccc(SCC(=O)Nc2ccc(S(=O)(=O)Nc3nccs3)cc2)cc1` was tested. Which “hERG current change (%, negative = inhibition) at 1uM” value did it give?
**A.** The value was 14%.

**Q.** Which “hERG current change (%, negative = inhibition) at 1uM” value does the source give for `O=C(Nc1ccc2ccccc2c1)c1ccc2[nH]c(=O)c(=O)[nH]c2c1` here?
**A.** Its value is 15.1%.

**Q.** Which “hERG current change (%, negative = inhibition) at 1uM” value does the source give for `C=CCc1ccccc1OCC(O)CN1CCN(c2ccc(OC)cc2)CC1.Cl` (stereo not shown) here?
**A.** The value was -27.3%.

**Q.** How did the “hERG current change (%, negative = inhibition) at 1uM” value turn out when `O=C(Cc1ccccc1)N/N=C/c1cc2c(cc1Cl)OCO2` was run?
**A.** Its value is 8.86%.

**Q.** Which “hERG current change (%, negative = inhibition) at 1uM” value does the source give for `CC(C(=O)Nc1cc(C(F)(F)F)ccc1N1CCOCC1)N1C(=O)C2CCCCC2C1=O` (stereo not shown) here?
**A.** Its value is 4.58%.

**Q.** `O=C(O)C1CC=CCC1C(=O)Nc1cccc(Cl)c1` (stereo not shown) was tested. Which “hERG current change (%, negative = inhibition) at 1uM” value did it give?
**A.** Its value is 15.8%.

**Q.** `CCCN(Cc1cc2cccc(C)c2[nH]c1=O)S(C)(=O)=O` was tested. Which “hERG current change (%, negative = inhibition) at 1uM” value did it give?
**A.** Its value is -5.19%.

**Q.** With `O=C1CSC(c2cccc([N+](=O)[O-])c2)N1c1ccccc1` (stereo not shown) as the molecule, how does the “hERG current change (%, negative = inhibition) at 1uM” value read?
**A.** The value was 3.69%.

**Q.** With `COc1ccccc1C(=O)NCCC(=O)N1CCN(c2ccccc2O)CC1` as the molecule, how does the “hERG current change (%, negative = inhibition) at 1uM” value read?
**A.** Its value is 22.8%.

**Q.** Which “hERG current change (%, negative = inhibition) at 1uM” value does the source give for `Cc1nc(C)c(-c2csc(Nc3ncccc3C)n2)s1` here?
**A.** Its value is 9.41%.

**Q.** With `Cc1cc(C)nc(NC(=S)NC(=O)c2ccccc2)n1` as the molecule, how does the “hERG current change (%, negative = inhibition) at 1uM” value read?
**A.** Its value is 15.2%.

**Q.** With `CCc1noc(C)c1C(=O)Nc1nnc(CC(C)C)s1` as the molecule, how does the “hERG current change (%, negative = inhibition) at 1uM” value read?
**A.** Its value is 12.3%.

**Q.** For `CCN1C(=S)SC(=O)C1=C1C=C(C)N(CCO)C(C)=C1`, which “hERG current change (%, negative = inhibition) at 1uM” value is on record?
**A.** The value was 4.65%.

**Q.** Which “hERG current change (%, negative = inhibition) at 1uM” value does the source give for `COc1ccc(-c2oc3ccccc3c2C#CC(C)(C)O)cc1` here?
**A.** Its value is 13.6%.

**Q.** How did the “hERG current change (%, negative = inhibition) at 1uM” value turn out when `COc1ccc(-c2cc(C3CCNCC3)[nH]n2)cc1` was run?
**A.** Its value is 13.8%.

**Q.** `Cc1[nH]c2ccccc2c1C(=O)C(=O)N1CCC2(CC1)OCCO2` was tested. Which “hERG current change (%, negative = inhibition) at 1uM” value did it give?
**A.** Its value is 12%.

**Q.** Which “hERG current change (%, negative = inhibition) at 1uM” value does the source give for `CC(=O)CSc1nc(C(F)(F)F)cc(=O)n1-c1ccccc1` here?
**A.** The value was 13.7%.

**Q.** Which “hERG current change (%, negative = inhibition) at 1uM” value does the source give for `CC(=O)Nc1cccc(C(=O)N/N=C/c2ccccc2F)c1` here?
**A.** The value was 15.7%.

**Q.** Which “hERG current change (%, negative = inhibition) at 1uM” value does the source give for `COc1ccc(C2CC(c3ccc4ccccc4c3)=NN2C(=O)CNC2CCCCC2)cc1` (stereo not shown) here?
**A.** The value was 0.406%.

**Q.** `COc1ccc(NC(=O)n2ncc3c(C)cccc32)cc1` was tested. Which “hERG current change (%, negative = inhibition) at 1uM” value did it give?
**A.** The value was 16.9%.

**Q.** For `COC(=O)[C@H](CC(C)C)NC(=O)Nc1ccc(F)cc1`, which “hERG current change (%, negative = inhibition) at 1uM” value is on record?
**A.** Its value is 13.1%.

**Q.** Which “hERG current change (%, negative = inhibition) at 1uM” value does the source give for `Cc1n(C)c2cc(Cl)ccc2[n+]1Cc1ccccc1.[I-]` here?
**A.** Its value is 4.11%.
